In article PMC7819943, “Rice protein-binding microarrays: a tool to detect cis-acting elements near promoter regions in rice”:
This is one part of the list.

Target: T1, OsWOX13 (Oryza sativa, UniProt Q5QMM3 1-267)
T1 sequence: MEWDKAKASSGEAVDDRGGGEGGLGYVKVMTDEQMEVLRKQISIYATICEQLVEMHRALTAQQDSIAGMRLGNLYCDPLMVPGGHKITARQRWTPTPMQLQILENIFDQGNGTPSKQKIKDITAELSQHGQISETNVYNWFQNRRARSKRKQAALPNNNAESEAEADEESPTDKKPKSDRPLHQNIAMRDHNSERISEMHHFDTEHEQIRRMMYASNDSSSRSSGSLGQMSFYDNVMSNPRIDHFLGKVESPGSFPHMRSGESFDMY
Test: protein-binding microarray (RPBM); PBS, 2% BSA, 51.3 ng/ul salmon testes DNA, 50 uM zinc acetate, 200 nM TF, 25 C, 1 h; high values mean tight binding
Conditions: protein: recombinant; tags: N-terminal polyhistidine and DsRed monomer fusion (pET32a); label: CyDye5-dUTP incorporated in the synthesized complementary strand; 3' TTTTT single-stranded linker to array surface; dsDNA, one strand shown
Outline: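 For the binding signal, per-feature fluorescence intensity was read in arbitrary units on an Axon 4000B scanner. Before scanning, a 2% BSA-blocked custom Agilent array made double-stranded with Cy5-dUTP was washed after 1 h at 25 °C with 200 nM protein and 50 µM zinc acetate. The proteins were Ni–NTA-purified transcription factors with N-terminal polyhistidine and DsRed fusions, expressed in E. coli BL21-CodonPlus.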

Sequence	binding signal
GTACCATAATTTATCACAGTGAAATGACTAATGATCTCACCGGAGTCACCTAGTGCAG	11400 fluorescence intensity (a.u.)
AAAATTTAAATTTTAGCTGATAAGTATAATTGTTTATGGTCGGAGTCACCTAGTGCAG	24600 fluorescence intensity (a.u.)
GATGAATTAATTAGGCTTAATAAATTAATCTCGTAGTTTACGGAGTCACCTAGTGCAG	16600 fluorescence intensity (a.u.)
CTATCGTTATTTACACGTGATTTAAATAGTTATGAATTTTCGGAGTCACCTAGTGCAG	3700 fluorescence intensity (a.u.)
CTCAAAATCATAATTGTTCCGATTAAATTAAGAACCGGTTCGGAGTCACCTAGTGCAG	15300 fluorescence intensity (a.u.)
TTTCACTCACTGACAGCATATATATTTGTAGTCATTGTTTCGGAGTCACCTAGTGCAG	5010 fluorescence intensity (a.u.)
CCAAACCAATCAAACGCATTCTATCCTAGTTGGCATAACCCGGAGTCACCTAGTGCAG	5440 fluorescence intensity (a.u.)
GTGACAGTGACACAAGTAACAGCATGATGATGGAGCACTGCGGAGTCACCTAGTGCAG	5090 fluorescence intensity (a.u.)
AGATGATGTGACTGAAAAGTTGTGTATGTATGACAGATTGCGGAGTCACCTAGTGCAG	13400 fluorescence intensity (a.u.)
AGTGATTAATGAGACAAATAGTACTTTATTGTGACAAGTACGGAGTCACCTAGTGCAG	30900 fluorescence intensity (a.u.)
TCTGGTTTTGTAATTAGGGGACGATTTTGTATCTCGATGACGGAGTCACCTAGTGCAG	3760 fluorescence intensity (a.u.)
CGACCTGATTCTGATTATAAAATTTGGGTTAGGATATGGGCGGAGTCACCTAGTGCAG	9930 fluorescence intensity (a.u.)
GATTAACATTGCCAATCTTCCTAAGCTGCCGTGTTTCGGACGGAGTCACCTAGTGCAG	7560 fluorescence intensity (a.u.)
GCATTATTAATTAAATATTTATTACTATTAAAACTTGAAACGGAGTCACCTAGTGCAG	16400 fluorescence intensity (a.u.)
CATAAATAATTGTATTCATTTGCTCGTTCTTACCTTCACACGGAGTCACCTAGTGCAG	18600 fluorescence intensity (a.u.)
AATTAAGGTGTCTAATTATATAGATAGATACATAATTCCCCGGAGTCACCTAGTGCAG	10800 fluorescence intensity (a.u.)
TTCTGGAATTGAATTGAAGTCTCTTCCATTTGTTCCATTGCGGAGTCACCTAGTGCAG	13100 fluorescence intensity (a.u.)
TCTTCGTCTCTTTCTAATCATACACATTTAACAGGGAAGCCGGAGTCACCTAGTGCAG	10600 fluorescence intensity (a.u.)
GGGTAAAATTTGATATAGATATGAGTTACCTATTATCCTCCGGAGTCACCTAGTGCAG	3690 fluorescence intensity (a.u.)
TTTATTTAAACTCAAATCACGTCGAGATTGTTGGAGAGGCCGGAGTCACCTAGTGCAG	5760 fluorescence intensity (a.u.)
GATTATCAAAATATTAATTAAAATAAAATCGGAGGGAGTACGGAGTCACCTAGTGCAG	3850 fluorescence intensity (a.u.)

Sequence	binding signal
TAGATACAATTAAAATTAATATAGTTGTGTACCACTGTATCGGAGTCACCTAGTGCAG	3560 fluorescence intensity (a.u.)
TTGATGTGCAATAATTAACGAGAGAAGAGTTTTCCCATAGCGGAGTCACCTAGTGCAG	10300 fluorescence intensity (a.u.)
GGTTAATTTCTAGGGTATGGTGATGGTAATGTTGCGGCGACGGAGTCACCTAGTGCAG	12800 fluorescence intensity (a.u.)
AAATAAATGGAAAATACTGGTGATGTGGGGTGGAGTCATCCGGAGTCACCTAGTGCAG	8520 fluorescence intensity (a.u.)
TGGGCCGTGATTGAGGCCTATATATACGTGGCCTGACAAACGGAGTCACCTAGTGCAG	16200 fluorescence intensity (a.u.)
ATGTAATTTTCTTCCACGAGACGCTCCAACTGTCCAAGCACGGAGTCACCTAGTGCAG	4800 fluorescence intensity (a.u.)
ATTAGATTGACTATAGATGAATTGAAGACAGTAGTGGGCTCGGAGTCACCTAGTGCAG	49500 fluorescence intensity (a.u.)
TAAGCCTAATTAATCCGTCATTAGCAAATGTTTGCTATAGCGGAGTCACCTAGTGCAG	9650 fluorescence intensity (a.u.)
CTATAATTAGATTAATCCGGGCCCACGGGCTTAACCTTCTCGGAGTCACCTAGTGCAG	29400 fluorescence intensity (a.u.)
ACATTTCTCCCTAATTATCCCCATTCTCCCTGTACTTGCACGGAGTCACCTAGTGCAG	7890 fluorescence intensity (a.u.)
TAGAATTAGACAACATCATGTGTTTGCATGTAAATTGTTTCGGAGTCACCTAGTGCAG	3280 fluorescence intensity (a.u.)
GTCCCATTAATCTGATAGGATATCCTGTAACATGTTACAACGGAGTCACCTAGTGCAG	5620 fluorescence intensity (a.u.)
TTAAAAGTTTGATTGAAATTGGAACGATGTGATGGAAAAGCGGAGTCACCTAGTGCAG	22400 fluorescence intensity (a.u.)
TTCACCGATTGATTGTCTCCCTGTTAAGCTGTGTTCAAGTCGGAGTCACCTAGTGCAG	42900 fluorescence intensity (a.u.)
GCCGTGTAAACTTCAATCTAATTATTCGGACGACAATGACCGGAGTCACCTAGTGCAG	12400 fluorescence intensity (a.u.)
TTGATTGAGATGTGACTGGAAAGGTGTGTCAGTGCAGGCACGGAGTCACCTAGTGCAG	56800 fluorescence intensity (a.u.)
CCATGGATTGGAATGTTGCGTGCACGAAACACATCCGATGCGGAGTCACCTAGTGCAG	4560 fluorescence intensity (a.u.)
TATCAAATTTTCAATTTTCACTGTAAGACATGAATTAGAGCGGAGTCACCTAGTGCAG	4910 fluorescence intensity (a.u.)
CCAAATTTCCCAATCCGTCGGCGCTCACCGCCTTCTGTGCCGGAGTCACCTAGTGCAG	6020 fluorescence intensity (a.u.)
GGAGTAGGTACTTTAATTAATTCCGTGACGAGACGACGACCGGAGTCACCTAGTGCAG	7070 fluorescence intensity (a.u.)
CCTCTAATTATAGTGCAAAATAAAACGCTGTGCCTCAATTCGGAGTCACCTAGTGCAG	17800 fluorescence intensity (a.u.)

Sequence	binding signal
GAAATCTATGCAAATTAGCGTGCGATTAGCGAGGCCACGTCGGAGTCACCTAGTGCAG	6150 fluorescence intensity (a.u.)
TAATTAATTAGTAATTAAGAAAGTCGTAGTATCCCGATCGCGGAGTCACCTAGTGCAG	51100 fluorescence intensity (a.u.)
CCTGCTATAAATTTAGTTCTGTTCATAGTGTCTAATGATTCGGAGTCACCTAGTGCAG	4180 fluorescence intensity (a.u.)
TGTTCTCATTCACCTATAGCTGATTTCAGATGAACTCTACCGGAGTCACCTAGTGCAG	3690 fluorescence intensity (a.u.)
ATTAATAACTGATTCAGTCACAGTCGAAATGCTTGCCTTCCGGAGTCACCTAGTGCAG	20400 fluorescence intensity (a.u.)
TAATTGACATGAACTACTTGTGTAATTGACTTTGTTTAGTCGGAGTCACCTAGTGCAG	24700 fluorescence intensity (a.u.)
AGAGAGAGGAAGCTAATTAATTAAGCTAAGCTAAGCTAGCCGGAGTCACCTAGTGCAG	3510 fluorescence intensity (a.u.)
TTACATTGTAATTACACTACGATTGTACTATAATTACATCCGGAGTCACCTAGTGCAG	8440 fluorescence intensity (a.u.)
AATAGGATTAGGCAAGGTGATTAGTGGTACATTATGTGCTCGGAGTCACCTAGTGCAG	7060 fluorescence intensity (a.u.)
AAATCAATCAATCAAAATTCAAAATATCAAATGGTGATGACGGAGTCACCTAGTGCAG	48800 fluorescence intensity (a.u.)
TTCTTCCTTTGATTTGAAAAGTAATCCAAAGGAATGTTTCCGGAGTCACCTAGTGCAG	3390 fluorescence intensity (a.u.)
GATTAATTAATTAATCTCAATGATGGTAAATACATTCCCACGGAGTCACCTAGTGCAG	63100 fluorescence intensity (a.u.)
ATTTCATCAATCTCAATTCTCAAGATTTGCTAGCTCAGTTCGGAGTCACCTAGTGCAG	8540 fluorescence intensity (a.u.)
GGTAGATTGCACTTAGTGGGGATGGCTTGTACAGGCATAGCGGAGTCACCTAGTGCAG	9640 fluorescence intensity (a.u.)
ATGGGTAATTTGTTGCAATAGAGTTGTGTGTATGGACACGCGGAGTCACCTAGTGCAG	16200 fluorescence intensity (a.u.)
ACCTGATTTCATCTCTATATAGAGATAAAGAAGTTGTGTACGGAGTCACCTAGTGCAG	6650 fluorescence intensity (a.u.)
CGGATAACATGACGGAGGACTGTTATCGTCGTTGGTTGCACGGAGTCACCTAGTGCAG	3560 fluorescence intensity (a.u.)
TCGAAAATAAATCAATCTCGTACGAAATATGACACATCATCGGAGTCACCTAGTGCAG	9530 fluorescence intensity (a.u.)
TATAGGTAGACGTATTGATTAATTAAAAGAGTTTTCGAAGCGGAGTCACCTAGTGCAG	4420 fluorescence intensity (a.u.)
GATGATAGGCCGTCAAAGCTAGCTAAGCTACGCGATGAATCGGAGTCACCTAGTGCAG	3510 fluorescence intensity (a.u.)
CACAAATTATTATTTTAAAGCGTGCGGTGTCCACCGGTAACGGAGTCACCTAGTGCAG	15300 fluorescence intensity (a.u.)

Sequence	binding signal
GCAGAATTTTCAAATTAGAGCCAATTCGATCGGCTAGGAACGGAGTCACCTAGTGCAG	3230 fluorescence intensity (a.u.)
AAGACGATAGATTTGAGAACATGTGTTGTGTTGTGTTTGACGGAGTCACCTAGTGCAG	3290 fluorescence intensity (a.u.)
TGACCTGATTACTGACTGACTAATGAGGTGATGCAGATTTCGGAGTCACCTAGTGCAG	18200 fluorescence intensity (a.u.)
TTATACTGCACTTAATTATTTTGCTATAGTCAAATTACAACGGAGTCACCTAGTGCAG	4500 fluorescence intensity (a.u.)
AACGCAACCTGATTAGTTTAAGCCACCGGAATGCTGTTCGCGGAGTCACCTAGTGCAG	6910 fluorescence intensity (a.u.)
CCATTAATTAGCCCATAAAGAATAGGCCCATTAATGAGCCCGGAGTCACCTAGTGCAG	26100 fluorescence intensity (a.u.)
GATTACCTGATTACCTGATTACCTGTGTCACTGACAACTCCGGAGTCACCTAGTGCAG	20800 fluorescence intensity (a.u.)
AATAACTGATGACTGTGAATGATTGATACGATGTAGTAGGCGGAGTCACCTAGTGCAG	65300 fluorescence intensity (a.u.)
GTTAATTACCGCCGATATTCATATCTCTGCTTACAAACGGCGGAGTCACCTAGTGCAG	21100 fluorescence intensity (a.u.)
GCCTAATTAGTCCATGATTAGCTATAAGTGCTACAATAACCGGAGTCACCTAGTGCAG	28100 fluorescence intensity (a.u.)
TTCTAATTGATGTTTGTGATAATGTTAGGAATCCGGAGGGCGGAGTCACCTAGTGCAG	50800 fluorescence intensity (a.u.)
CGCAGATTAAACTGGCATTCTTGCACAGAAACCCCTACATCGGAGTCACCTAGTGCAG	19100 fluorescence intensity (a.u.)
AAAATTAACAATAATCCTGCCCTGTCTGGCCACTTCCTGTCGGAGTCACCTAGTGCAG	10400 fluorescence intensity (a.u.)
AACAATGATAGAGCTTTATGATTTGTTAATGGTTGCTGCACGGAGTCACCTAGTGCAG	30100 fluorescence intensity (a.u.)
GGCTGACGTCTAAATAAATTTTGAGTAAATTACATTAGCGCGGAGTCACCTAGTGCAG	15600 fluorescence intensity (a.u.)
GATGCTGTCAATTTAGGAATGCTCTCTTCACTACCACGGGCGGAGTCACCTAGTGCAG	6980 fluorescence intensity (a.u.)
TCACATTGACTGATGATCCAAATGGCAAAGAACCACAATGCGGAGTCACCTAGTGCAG	24700 fluorescence intensity (a.u.)
TCCTATAGATTGAGAGGAGTAAACTTAATCAGGTATTAACCGGAGTCACCTAGTGCAG	23600 fluorescence intensity (a.u.)
TTCAATTGATGTTCTTGCTTGCAAGTTGCAACGAGATTTGCGGAGTCACCTAGTGCAG	7920 fluorescence intensity (a.u.)
CTTCTAAACTTGATGTACGCAATCATCTGATGGTGTGGGTCGGAGTCACCTAGTGCAG	3810 fluorescence intensity (a.u.)
GCCCAATTCCACTGCAAATTTAAATGGGCCAGGATCCGGACGGAGTCACCTAGTGCAG	3320 fluorescence intensity (a.u.)
